Values joined by “and” are separate entries in the source; they are usually repeats but may differ in a detail not shown here. Identical values can stand only once. Hit rate of the full screen: of about 370,000 compounds, about 150 (0.041%) were called active. Inconclusive results, whose numbers are uncertain, are shown with a selection of clear calls. The call rests on the fitted dose curve; in most records, active means well fitted inhibition curve with a large enough effect; inconclusive means small, poorly fitted or top-dose-only effect; inactive means flat fitted curve, though single readings scatter. Where the call is inconclusive, the potency comes from a doubtful curve fit.
Target: Beta-lactamase (Escherichia coli (strain K12)) (UniProt P00811)
Assay: qHTS Inhibitors of AmpC Beta-Lactamase (assay with detergent); further: nearly all actives have a fitted effect of over 25% in size;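 on activity change, negative = inhibition: 0% = no-compound wells and -100% = no-enzyme wells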
Conditions: AmpC hydrolysis of nitrocefin, absorbance 480 nm, 0.01% Triton; activity change, negative = inhibition: at 114 µM (top of the series)
Outline: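 AmpC (5.3 nM in the dispensed reagent) in 20 mM phosphate pH 7.0 with 0.01% (detergent screen) or 0.0001% Triton X-100 was preincubated with compounds for 15 min at room temperature. Nitrocefin was then added from an 800 uM solution, and hydrolysis was followed at 480 nm.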
Potency means the concentration at half of the fitted maximal effect; tags describe the fitted curve by direction and shape.

Chain of UniProt P00811 (P00811 whole entry, looked up): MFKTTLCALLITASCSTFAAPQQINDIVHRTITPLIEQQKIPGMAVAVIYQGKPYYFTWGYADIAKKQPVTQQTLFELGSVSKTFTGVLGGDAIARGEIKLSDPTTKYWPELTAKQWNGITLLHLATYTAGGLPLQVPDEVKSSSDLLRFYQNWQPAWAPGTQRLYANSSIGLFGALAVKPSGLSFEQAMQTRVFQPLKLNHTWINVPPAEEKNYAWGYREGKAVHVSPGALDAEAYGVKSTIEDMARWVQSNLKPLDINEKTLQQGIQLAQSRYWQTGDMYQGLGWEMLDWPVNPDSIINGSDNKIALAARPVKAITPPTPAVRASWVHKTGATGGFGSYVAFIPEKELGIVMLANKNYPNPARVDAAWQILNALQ

Compound | Potency | activity change, negative = inhibition
Cc1cc(C)c(C2=NOC(O)(C(F)(F)F)C2)c(=O)[nH]1 (stereo not drawn) | inconclusive: 25.1 µM [inhibitor, full curve, poor fit] | 
Cc1oc(C(C)(C)C)cc1C(=O)N1CCCC1C(=O)O (stereo not drawn) | inconclusive: 2.51 µM [inhibitor, single point] | 
c1ccc(Cc2nnc(-c3ccccc3)o2)cc1 |  | inactive: -7.52%
CC1(C)Oc2ccc3ccc(=O)oc3c2C(/C=N/O)=C1Cl | inconclusive: 5.01 µM [inhibitor, full curve, poor fit] | 
Cc1cc(C)cc(N2C(=O)NC(=O)/C(=C\c3cccn3-c3ccccc3)C2=O)c1 | inconclusive: 100 µM [inhibitor, single point] | 
CCOC(=O)[C@H]1[C@H]2COc3ccccc3[C@@H]2N2C(=O)c3cc(C)ccc3NC(=O)[C@@]12C |  | inactive: 1.23%
O=C(N/N=C1\CCc2ccccc21)c1ccncc1 | inconclusive: 0.562 µM [inhibitor, full curve, poor fit] | 
COC(=O)c1nc(-c2ccc(C)cc2)oc1N(C)C | inconclusive: 8.91 µM [inhibitor, partial curve] | 
COc1cc([C@@H]2CC=C(C(=O)O)[C@H](c3ccccc3F)N2S(=O)(=O)c2ccc(C)cc2)cc(OC)c1OC |  | inactive: -0.541%
Cc1cc(C)c2cc(CN(CCO)Cc3nnnn3Cc3ccc(F)cc3)c(=O)[nH]c2c1 | inconclusive: 0.631 µM [inhibitor, full curve, poor fit] | 
CCCN(CCC)C(=O)c1c2c(nc3ccccc13)C(=O)N(C1CCCCC1)C2 |  | inactive: -3.98%
CCOc1cccc(=O)c2c(C)n(CC3CCCO3)c(C)c12 (stereo not drawn) | inconclusive: 44.7 µM [inhibitor, partial curve] | 
Cc1ccc(Cl)cc1NC(=O)C(Cc1ccccc1)N1C(=O)C2C3CCC(C3)C2C1=O (stereo not drawn) | inconclusive: 2.82 µM [inhibitor, full curve, poor fit] | 
O=C(O)c1ccccc1C(=O)c1ccc(-c2ccccc2)cc1 |  | inactive: -7.89%
COc1cccc(CNC(=O)CC(NC(=O)c2ccccc2)c2ccccc2)c1 (stereo not drawn) | inconclusive: 2.82 µM [inhibitor, full curve, poor fit] | 
O=C(C[N+]12CCC(CC1)C(O)C2)c1ccc(Br)cc1 (stereo not drawn) | inconclusive: 44.7 µM [inhibitor, partial curve] | 
COc1ccc2[nH]c(=O)c(CN(Cc3cccs3)Cc3nnnn3C(C)(C)C)cc2c1 |  | inactive: 3.59%
COCCNC(=O)CS(=O)Cc1nc(-c2ccccc2C)oc1C (stereo not drawn) |  | inactive: -7%
O=C(N1CCCC1)C12CCC3CC(CC(C3)C1)C2 | inconclusive: 0.562 µM [inhibitor, full curve, poor fit] | 
COc1ccc(NS(=O)(=O)c2cc(NC(=O)/C=C/c3cc(OC)ccc3OC)ccc2N2CCCCC2)cc1 | inconclusive: 5.01 µM [inhibitor, full curve, poor fit] | 
Cc1cccc(N2CCN(S(=O)(=O)c3cc(C(=O)Nc4ccccc4Cl)ccc3F)CC2)c1C |  | inactive: 2.56%
COC(=O)c1cccc(Nc2nc(-c3cccnc3)nc3ccccc23)c1 |  | inactive: -5.02%
Cc1ccc(NC(=O)CS(=O)CC(=O)N(c2ccccc2)C(C)C(=O)NC2CCCC2)cc1 (stereo not drawn) | inconclusive: 0.355 µM [inhibitor, full curve] | 

Compound | Potency | activity change, negative = inhibition
Cc1ccc(C)c(CSc2nnc(-c3cccnc3)n2N)c1 | inconclusive: 5.01 µM [inhibitor, full curve, poor fit] | 
COc1ccc(-c2[nH]nc3c2C(c2ccncc2)C(C#N)=C(N)O3)cc1 (stereo not drawn) | inconclusive: 31.6 µM [inhibitor, full curve] | 
Fc1ccc(CNc2nc(-c3ccccc3)nc3ccccc23)cc1 | inconclusive: 100 µM [inhibitor, partial curve] | 
Cc1ccccc1OCc1nnc(SCC(=O)Nc2ccc3c(c2)OCO3)n1C | inconclusive: 2.51 µM [inhibitor, full curve, poor fit] | 
OC(COc1ccc(Br)cc1)Cn1ccnc1 (stereo not drawn) | inconclusive: 0.794 µM [inhibitor, full curve, poor fit] | 
CC(=O)N1CCSc2ccc(S(=O)(=O)Nc3ccccc3C)cc21 |  | inactive: -1.24%
O=C(NCC(=O)N1CCCC1)c1ccccc1F | inconclusive: 0.631 µM [inhibitor, full curve, poor fit] | 
O=C(Cc1ncc(C(F)(F)F)cc1Cl)N1CCN(c2ccccn2)CC1 | inconclusive: 28.2 µM [inhibitor, full curve, poor fit] | 
NC(=O)c1cccc(C[C@H](C(=O)O)N2C(=O)c3ccc(C(=O)O)cc3C2=O)c1 | inconclusive: 0.708 µM [inhibitor, full curve] | 
Fc1cccc(-c2cc3nc(-c4ccccc4)cc(N4CCC5(CC4)OCCO5)n3n2)c1 |  | inactive: 0.593%
Cc1ccc2cc(CN(CC3CCCO3)S(=O)(=O)c3ccccc3)c3nnnn3c2c1 (stereo not drawn) | inconclusive: 56.2 µM [inhibitor, partial curve] | 
O=C1c2ccccc2C(Nc2cccc(C(F)(F)F)c2)N1Cc1ccco1 (stereo not drawn) |  | inactive: -8.25%
O=S(=O)(Nc1cccc(-c2ccc(N3CCCCCC3)nn2)c1)c1cccc(F)c1 | inconclusive: 708 nM [inhibitor, full curve, poor fit] and inconclusive: 100 µM [inhibitor, partial curve, poor fit] | 
O=C(CCl)N1N=C(c2ccco2)CC1c1ccco1 (stereo not drawn) |  | inactive: -1.57%
Cc1nnc(N(CCC#N)CCC#N)s1 | inconclusive: 5.62 µM [inhibitor, full curve, poor fit] | 
Cn1cnc([N+](=O)[O-])c1N=C(N)N | inconclusive: 100 µM [inhibitor, single point] | 
C=CCOc1cccc(C(=O)N2CCC(CCC(=O)NC3CC3)CC2)c1 | inconclusive: 10 µM [inhibitor, full curve, poor fit] | 
O=C(NCCc1ccccc1)C1CCN(C(=O)Nc2ccccc2)CC1 | inconclusive: 56.2 µM [inhibitor, partial curve, poor fit] | 
C/C(=N/Nc1ccc([N+](=O)[O-])cc1)c1ccc(C)cc1C |  | inactive: 9.01%
COCCNC(=O)c1ccc2nc(Cc3ccc(OC)c(OC)c3)oc2c1 | inconclusive: 0.631 µM [inhibitor, full curve, poor fit] | 
CCCCOC(=O)CSC1=C(C#N)C(c2cccnc2)C(C(=O)OCC)=C(c2ccccc2)N1 (stereo not drawn) | inconclusive: 22.4 µM [inhibitor, full curve] | 
COc1cc(OC)c(Nc2cc(C)nc3nc(C)nn23)cc1Cl | inconclusive: 4.47 µM [inhibitor, full curve, poor fit] | 
CCOC(=O)C1(CCc2ccccc2)CCN(Cc2ccccn2)CC1 |  | inactive: 6%

Compound | Potency | activity change, negative = inhibition
COC(=O)CCN(c1ccccc1)S(=O)(=O)c1cc(-c2cc(C)no2)ccc1OC | inactive | 
CCCn1c(N)c(N(CCOC)C(=O)c2cccc(S(=O)(=O)N3CCCc4ccccc43)c2)c(=O)[nH]c1=O | inconclusive: 44.7 µM [inhibitor, single point] | 
CS(=O)(=O)NCc1csc(-c2ccccc2)n1 | inconclusive: 44.7 µM [inhibitor, partial curve, poor fit] | 
S=C(NCc1ccc(Cl)c(Cl)c1)NCc1ccco1 | inconclusive: 1.41 µM [inhibitor, full curve] | 
O=C(Nc1cc(C(F)(F)F)ccc1N1CCOCC1)c1ccccc1 |  | inactive: -0.835%
OC(COc1ccc(Br)cc1)CN1CCCC1 (stereo not drawn) | inconclusive: 0.355 µM [inhibitor, full curve, poor fit] | 
Cc1cc(NC(=O)c2ccccc2Oc2ccccc2)no1 |  | inactive: 2.59%
COc1ccccc1NS(=O)(=O)c1cccc(C(=O)N/N=C/c2ccc(OCC(=O)O)cc2)c1 | inconclusive: 2.82 µM [inhibitor, single point] | 
CCCSc1nc(O)c(C2OC(=O)c3c2ccc(OC)c3OC)c(=O)n1-c1ccccc1 (stereo not drawn) | inconclusive: 5.62 µM [inhibitor, full curve, poor fit] | 
CC1CCN(C(=O)Cn2cc3c(n2)CCCC3)CC1 | inconclusive: 5.62 µM [inhibitor, full curve, poor fit] | 
O=C(CSc1ncccn1)NC(=O)NCc1ccco1 | inconclusive: 112 µM [inhibitor, partial curve, poor fit] | 
CC1Cc2ccccc2N1Cc1cccc(S(=O)(=O)N(C)C)c1 (stereo not drawn) |  | inactive: -7.3%
CCN(CC)CCNC(=O)c1cccc(NC(=O)C(=O)c2ccccc2NC(C)=O)c1 |  | inactive: -16.2%
O=C(Cn1[nH]c(=O)c2ccccc2c1=O)Nc1ccc2c(c1)CCC2 | inconclusive: 112 µM [inhibitor, partial curve, poor fit] | 
Cc1cc(NC(=O)COC(=O)c2cc([N+](=O)[O-])ccc2N2CCOCC2)ccc1Br | inconclusive: 2.24 µM [inhibitor, full curve] | 
CC(=O)Nc1sc(/C(C#N)=C/c2ccc(Cl)c(Cl)c2)nc1-c1ccc(C)cc1 |  | inactive: -3.01%
O=C(NCC(=O)N(Cc1cccs1)C(C(=O)NC1CCCC1)c1cccnc1)c1ccco1 (stereo not drawn) | inconclusive: 100 µM [inhibitor, partial curve, poor fit] | 
CC(C)c1nc2sc3c(=O)n(N)cnc3c2c2c1COC(C)(C)C2 | inconclusive: 50.1 µM [inhibitor, partial curve] | 
COc1ccc(CNC(=O)c2ccc(NC(=O)N3CCCCc4ccccc43)cc2)cc1 |  | inactive: 1.35%
COc1ccc(OC)c(NC(=O)c2cccc(NC(=O)c3ccccc3)c2)c1 |  | inactive: -14%
CCn1c(=O)c(C(=O)NNC(=O)c2ccccc2Cl)c(O)c2ccccc21 |  | inactive: 18.2%
COc1cc(C2CC(=O)Nc3cc4c(cc32)OCCO4)cc(Br)c1OC (stereo not drawn) |  | inactive: 9.08%
